From the antibiotic and cytotoxicity screens of Wong et al. (2023)
The list shows a part of the results.

Legend:
HSkMC = human skeletal muscle cells; assay: cytotoxicity call (relative viability < 0.9); conditions: 10 µM
S. aureus RN4220 = assay: growth inhibition call (relative growth <= 0.2); conditions: 50 µM

| Structure (SMILES) | cytotoxicity call (HSkMC) | growth inhibition call (S. aureus RN4220) |
| --- | --- | --- |
| COc1ccc(NC(=O)Nc2ccc3c(c2)C(=O)N([C@H](C)CO)C[C@H](C)[C@H](CN(C)Cc2ccncc2)OCCCC[C@@H](C)O3)cc1 | inactive | inactive |
| COc1ccc(NC(=O)N(C)C[C@H]2Oc3c(NS(C)(=O)=O)cccc3C(=O)N([C@@H](C)CO)C[C@H]2C)cc1 | inactive | inactive |
| C[C@H](CO)N1C[C@H](C)[C@@H](CN(C)C(=O)NC2CCCCC2)OCCCC[C@H](C)Oc2ccc(NC(=O)CCC(F)(F)F)cc2C1=O | inactive | inactive |
| Cn1cnc(S(=O)(=O)N[C@@H]2CC[C@H](CC(=O)NCC3CC3)O[C@H]2CO)c1 | inactive | inactive |
| Cc1cccc(=O)n1CCCCN | inactive | inactive |
| CCOC(=O)CN(C#N)c1nc(C)cc(C)n1 | inactive | inactive |
| COc1ccc([Si](C)(C)[C@@H]2[C@@H](CC(=O)N3Cc4ccccc4C[C@H]3CO)O[C@]3(C(=O)N(Cc4cccc(N5CCC5=O)c4)c4ccccc43)[C@H]2C)cc1 | inactive | inactive |
| COc1ccc2c3c([nH]c2c1)[C@@H](CO)N(C[C@]13CCN(CC1)CC1CCCCC1)C(=O)Nc1c(noc1C)C | inactive | inactive |
| O=C(C[C@@H]1CC[C@@H]2[C@H](COC[C@H](O)CN2S(=O)(=O)c2ccc(Cl)cc2)O1)NCCN1CCCCC1 | inactive | inactive |
| C[C@@H]1CCCCO[C@@H](CN(C)S(=O)(=O)c2ccc(F)cc2)[C@@H](C)CN([C@@H](C)CO)C(=O)c2cc(NC(=O)Nc3cccc4ccccc34)ccc2O1 | inactive | inactive |
| C[C@H]1CN([C@@H](C)CO)C(=O)c2cccc(NC(=O)C3CCOCC3)c2O[C@H]1CN(C)Cc1ccncc1 | inactive | inactive |
| Cc1noc(C)c1NC(=O)Nc1ccc2c(c1)C(=O)N([C@@H](C)CO)C[C@@H](C)[C@@H](CN(C)C(=O)Nc1ccc(C(F)(F)F)cc1)OCCCC[C@@H](C)O2 | inactive | inactive |
| CC(C)NC(=O)N(C)C[C@@H]1Oc2ncc(-c3ccc(C(=O)N(C)C)cc3)cc2C(=O)N([C@@H](C)CO)C[C@H]1C | inactive | inactive |
| C[C@H](CO)N1C[C@H](C)[C@@H](CN(C)S(=O)(=O)c2cn(C)cn2)Oc2c(NC(=O)Nc3ccc(F)cc3)cccc2C1=O | inactive | inactive |
| CC(C)NC(=O)N(C)C[C@@H]1OCCCC[C@H](C)Oc2ccc(NC(=O)Nc3ccc(F)cc3)cc2C(=O)N([C@@H](C)CO)C[C@H]1C | inactive | inactive |
| CO[C@@H]1CN(C)C(=O)c2cc(NC(=O)Nc3ccccc3F)ccc2OC[C@H](C)N(CCC(F)(F)F)C[C@@H]1C | inactive | inactive |
| C[C@H](CO)N1C[C@H](C)[C@@H](CN(C)Cc2ccc3c(c2)OCO3)OCc2ccccc2-c2c(n(C)c3ccccc23)C1=O | inactive | inactive |
| Cc1cc(C)n(-c2ccc(=O)n(CC(=O)N3CCN(S(=O)(=O)c4ccc(F)cc4)CC3)n2)n1 | inactive | inactive |
| C[C@@H]1CN([C@H](C)CO)C(=O)Cc2cc(NC(=O)NC3CCCCC3)ccc2O[C@H]1CN(C)Cc1ccc(C(F)(F)F)cc1 | inactive | inactive |
| Cc1ccc(S(=O)(=O)N(C)C[C@H]2Oc3ccc(NC(=O)NC(C)C)cc3C(=O)N([C@@H](C)CO)C[C@H]2C)cc1 | inactive | inactive |
| C[C@@H]1CCCCO[C@@H](CN(C)Cc2ccc(Cl)c(Cl)c2)[C@@H](C)CN([C@H](C)CO)C(=O)c2cc(NC(=O)Nc3ccccc3)ccc2O1 | inactive | inactive |
| C[C@H]1CN([C@@H](C)CO)C(=O)Cc2cc(NC(=O)CCN3CCOCC3)ccc2O[C@H]1CN(C)Cc1ccc(C(=O)Nc2ccccc2N)cc1 | inactive | inactive |
| O=C(CCCCCNC(=O)OCc1ccc(CO[C@@H]2C[C@H](C3CCCCC3)C=C(C(=O)N3CCN(Cc4ccccc4)CC3)O2)cc1)NO | inactive | inactive |
| C[C@@H]1CCCCO[C@@H](CN(C)C(=O)Nc2ccc(F)cc2)[C@H](C)CN([C@H](C)CO)C(=O)c2cc(NC(=O)Nc3ccc(F)cc3)ccc2O1 | inactive | inactive |
| COCCN1C[C@H]2CN(Cc3nccn3C)C[C@H]2C1=O | inactive | inactive |
| O=C(C[C@H]1CC[C@@H]2[C@H](COC[C@H](O)CN2Cc2cccc(C(F)(F)F)c2)O1)NCCc1ccncc1 | inactive | inactive |
| C[C@H]1CN([C@@H](C)CO)C(=O)Cc2cc(NC(=O)Nc3ccc(C(F)(F)F)cc3)ccc2O[C@@H]1CN(C)Cc1ccccc1 | inactive | inactive |
